Experimental data from PubChem BioAssay AID902 (National Center for Advancing Translational Sciences (NCATS), 2007).
Where “and” joins values, the source holds several entries; their conditions need not be identical. Equal values may be shown once. The campaign covered roughly 130,000 compounds. About 1,900 (1.5%) were called active. Inconclusive means that the source gave no clear call. Such entries were picked first, then a sample of the others. Calls follow the shape of the dose curve; as a rule, active = well fitted cell-killing curve with a large enough effect; inconclusive = small, poorly fitted or top-dose-only effect; inactive = no such curve, though single readings can be large or run the other way. A potency beside an inconclusive call is a rough fit, not a confirmed value.

Assay: qHTS Screen for Compounds that Selectively Target Cancer Cells with p53 Mutations: Cytotoxicity of p53ts Cells at the Nonpermissive Temperature; also: nearly all actives have a fitted effect of over 55% in size
Conditions: H1299-p53A138V viability at 39C, ATP luminescence, 24 h; activity change, negative = cell killing: at 46.1 µM (top of the series)
% is scaled to controls: 0 for no effect and ±100 for the full control effect; potency is read from the fitted curve at half-maximal effect; tags tell the direction and shape of the fitted curve.

Which Potency does the source give for `OC(COc1ccc(Cl)c2ccccc12)CN1CCN(c2ccccn2)CC1` (stereo not given) here?
The Potency was active: 15.8 µM.

With `Oc1c(-c2cc(-c3ccco3)[nH]n2)ccc2ccccc12` as the compound, how does the Potency read?
The Potency was inconclusive: 12.6 µM [cytotoxic, partial curve].

For `Cc1c(NS(=O)(=O)c2ccccc2)cc(C(C)C)c(O)c1S(=O)(=O)c1ccc(Cl)cc1`, which Potency is on record?
Its Potency is inconclusive: 31.6 µM [cytotoxic, single point].

Which Potency does the source give for `NC(=O)c1cc2ccc(O)cc2oc1=NCc1ccccc1` here?
The Potency was inconclusive: 20 µM [cytotoxic, partial curve].

Which “activity change, negative = cell killing” value does the source give for `CCOc1ccccc1CNC(=O)c1cnc2sc(N3CCCCCC3)nn2c1=O` here?
The value was inactive: -4.61%.

Which Potency does the source give for `CC(C)(C)C(=O)c1sc(Nc2ccccc2)nc1N` here?
The Potency was inconclusive: 20 µM [cytotoxic, single point].

Which Potency does the source give for `Cc1cccc(NC(=O)CCc2c(C)nc3nc(CNC(=O)c4cccc(F)c4)nn3c2C)c1` here?
The Potency was inconclusive: 15.8 µM [cytotoxic, single point].

Which Potency does the source give for `CCOc1ccccc1CNS(=O)(=O)c1ccc(-c2coc(C)n2)cc1` here?
The Potency was inconclusive: 31.6 µM [cytotoxic, single point].

For `Cc1ccc(NC(=O)c2ccc(NC(=O)N3CCSc4nc(C)cc(C)c43)cc2)c(Cl)c1`, which Potency is on record?
The Potency was inconclusive: 25.1 µM [cytotoxic, partial curve, poor fit].

For `COc1ccc(C(=O)Nc2cc(OC)ccc2OC)cc1`, which Potency is on record?
The Potency was inconclusive: 12.6 µM [cytotoxic, partial curve].

With `CCn1cc(CNC(=O)c2cc(-c3ccc(C)c(C)c3)nc3ccccc23)c(C)n1` as the compound, how does the Potency read?
Its Potency is inconclusive: 12.6 µM [cytotoxic, single point].

Which Potency does the source give for `CCn1cc2nc(SCC(=O)Nc3ccc(C)cc3C)n(Cc3ccc(C)cc3)c(=O)c2n1` here?
The Potency was inconclusive: 12.6 µM [cytotoxic, single point].

Which Potency does the source give for `Cn1nnnc1SCc1ccc(C(=O)Nc2nccs2)cc1` here?
The Potency was active: 5.01 µM.

For `CCOC(=O)CNS(=O)(=O)c1cc(-c2nnc(Nc3cccc(O)c3)c3ccccc23)ccc1C`, which Potency is on record?
Its Potency is inconclusive: 20 µM [cytotoxic, single point].

With `O=S(=O)(c1ccccc1)c1nc(-c2cccs2)oc1SCc1ccccc1F` as the compound, how does the “activity change, negative = cell killing” value read?
Its value is inactive: 2.93%.

Which Potency does the source give for `Cc1ccc(C)c(N2CCN(CCCNC(=O)Cn3ncc4c5ccccc5n(C)c4c3=O)CC2)c1` here?
The Potency was inconclusive: 31.6 µM [cytotoxic, partial curve].

For `COc1cc(C2CC(=O)c3c([nH]c(C(=O)OCCOC(C)C)c3C)C2)cc(OC)c1OC` (stereo not given), which Potency is on record?
The Potency was inconclusive: 25.1 µM [cytotoxic, single point].

Which “activity change, negative = cell killing” value does the source give for `Cn1c(-c2ccc(CN3CCCCC3)o2)nc2ccccc21` here?
The value was inactive: -20.6%.

Which Potency does the source give for `O=c1c2ccccc2nc2ccc(NCc3ccco3)nn12` here?
The Potency was inconclusive: 20 µM [cytotoxic, single point].

With `Cc1ccc(CN2CCSc3ccc(C(=O)N4CCN(c5cc(C)ccc5C)CC4)cc32)cc1` as the compound, how does the “activity change, negative = cell killing” value read?
Its value is inactive: -3.36%.

For `c1ccc(CSc2nnc(-c3c[nH]c4ccccc34)o2)cc1`, which Potency is on record?
Its Potency is inconclusive: 12.6 µM [cytotoxic, partial curve].

For `Oc1ccccc1-c1cc(-c2cccc(F)c2)n[nH]1`, which Potency is on record?
The Potency was inconclusive: 7.94 µM [cytotoxic, partial curve].

With `COc1ccc(-c2cc3ccc(O)c(CN4CCOCC4)c3oc2=O)cc1` as the compound, how does the Potency read?
Its Potency is inconclusive: 15.8 µM [cytotoxic, partial curve, poor fit].

With `COc1cc(NC(=O)c2ccccc2)ccc1NC(=O)c1cc2ccccc2o1` as the compound, how does the Potency read?
Its Potency is inconclusive: 3.16 µM [cytotoxic, full curve, poor fit].

For `Cc1cccc(NC(=O)c2nc(S(C)(=O)=O)ncc2Cl)c1`, which Potency is on record?
Its Potency is inconclusive: 25.1 µM [cytotoxic, single point].

For `CCOc1ccc2nc(C)cc(Nc3ccccc3OCC)c2c1`, which Potency is on record?
Its Potency is active: 7.94 µM.

For `CCCOc1ccc(CNC(=O)C(CC)n2nc(C)c3sc4ccccc4c3c2=O)cc1` (stereo not given), which “activity change, negative = cell killing” value is on record?
The value was inactive: -15.8%.

Which Potency does the source give for `COc1ccc(-c2cc3nc4n(c(=O)c3s2)CCC4)cc1` here?
The Potency was active: 5.01 µM.

Which Potency does the source give for `Cc1ccc(Cl)cc1N1CCN(C(=O)CCC(=O)Nc2ccc3nc(N4CCC(C)CC4)cc(C)c3c2)CC1` here?
Its Potency is inconclusive: 15.8 µM [cytotoxic, partial curve].

With `Cc1ccc(CNC(=O)C2CCN(c3nc4ccccc4n(C)c3=O)CC2)cc1` as the compound, how does the “activity change, negative = cell killing” value read?
The value was inactive: 2.33%.

With `Cc1cc(N2CCN(C(c3ccccc3)c3ccccc3)CC2)n2ncnc2n1` as the compound, how does the “activity change, negative = cell killing” value read?
The value was inactive: 8.41%.

For `COc1cccc(-c2nc(CS(=O)(=O)CC(=O)NCc3ccc(C)cc3)c(C)o2)c1`, which Potency is on record?
The Potency was inconclusive: 10 µM [cytotoxic, single point].

For `Cc1ccc(CN2C(=O)C(O)(c3c[nH]c4ccccc34)c3cc(Cl)ccc32)cc1` (stereo not given), which Potency is on record?
The Potency was inconclusive: 25.1 µM [cytotoxic, single point].

With `c1csc(CNc2ccnc(-c3ccc4c(c3)OCO4)n2)c1` as the compound, how does the Potency read?
The Potency was active: 10 µM.

With `COc1ccc(C2c3c(-c4c(C)cc(C)cc4O)n[nH]c3C(=O)N2Cc2ccco2)cc1` (stereo not given) as the compound, how does the Potency read?
Its Potency is inconclusive: 31.6 µM [cytotoxic, single point].

For `O=C(NCCCN1CCN(c2ccc(F)cc2)CC1)Nc1ccc(Cl)cc1`, which Potency is on record?
The Potency was inconclusive: 12.6 µM [cytotoxic, single point].

With `COc1cccc(C(=O)/C=C/Nc2cc(C)ccc2O)c1` as the compound, how does the Potency read?
The Potency was inconclusive: 10 µM [cytotoxic, single point].

With `Cc1csc2nc(-c3cccc(NC(=O)c4ccccc4Cl)c3)cn12` as the compound, how does the Potency read?
The Potency was inconclusive: 35.5 µM [cytotoxic, single point].

With `Cc1cc(OCC(=O)c2ccc(F)cc2)ccc1N1C(=O)CCC1=O` as the compound, how does the Potency read?
Its Potency is inconclusive: 12.6 µM [cytotoxic, single point].

With `COc1ccc(C(=O)COC(=O)c2cccc(NC(=O)c3ccc(OC)c(OC)c3)c2)cc1` as the compound, how does the Potency read?
The Potency was active: 15.8 µM.

With `Cc1nc(C)c(-c2ccc(SCC(=O)Nc3ccc(F)c(F)c3)nn2)s1` as the compound, how does the Potency read?
Its Potency is inconclusive: 12.6 µM [cytotoxic, single point].

Which Potency does the source give for `COc1cc(/C=C(\C#N)c2nc3ccccc3n2C)cc(OC)c1OC` here?
The Potency was inconclusive: 12.6 µM [cytotoxic, single point].

With `Nc1cccc(-c2cn3ccsc3n2)c1` as the compound, how does the Potency read?
Its Potency is active: 25.1 µM.

For `Clc1ccc2nc(-c3ccccc3)[nH]c2c1`, which Potency is on record?
Its Potency is active: 12.6 µM.

For `CN1CCN(CCCN2c3ccccc3Sc3ccc(Cl)cc32)CC1`, which Potency is on record?
The Potency was active: 15.8 µM and active: 20 µM.

With `C=CCSc1nc2c(c(=O)[nH]c(=O)n2C)n1Cc1ccc(C)cc1` as the compound, how does the “activity change, negative = cell killing” value read?
The value was inactive: -0.0472%.

Which “activity change, negative = cell killing” value does the source give for `O=C(c1cc(C(F)(F)F)cc(C(F)(F)F)c1)N1CCC2(CCN(Cc3ccccc3)CC2)CC1` here?
Its value is inactive: -6.5%.

For `CC1CCc2c(sc(NC(=O)c3ccccc3)c2C(=O)Nc2ccccc2)C1` (stereo not given), which Potency is on record?
Its Potency is inconclusive: 5.01 µM [cytotoxic, single point].

For `COc1ccc(CNc2ccnc(-c3ccc(N(C)C)cc3)n2)c(OC)c1`, which “activity change, negative = cell killing” value is on record?
The value was inactive: -4.43%.

With `CCCCN(C)CCNC(=O)C1CCN(c2nc3ccc(CC)cc3s2)CC1` as the compound, how does the Potency read?
The Potency was active: 15.8 µM.

Which “activity change, negative = cell killing” value does the source give for `Nc1ccccc1Nc1cc(-c2ccccc2)nn1-c1cccc(Cl)c1` here?
The value was inactive: -18.1%.

For `O=C(CSc1nc2cc3ccccc3cc2[nH]1)Nc1cccc(C(F)(F)F)c1`, which Potency is on record?
The Potency was inconclusive: 15.8 µM [cytotoxic, single point].

For `COc1cccc(CNc2ncnc3onc(-c4ccc(F)cc4)c23)c1`, which “activity change, negative = cell killing” value is on record?
The value was inactive: -1.79%.

For `Cc1cc(C)n(-c2nnc(C)n2/N=C/c2cc(Br)ccc2OCc2ccccc2)n1`, which Potency is on record?
The Potency was inconclusive: 25.1 µM [cytotoxic, single point].

For `CCc1ccc(NC(=O)c2cc3ccccn3n2)cc1`, which Potency is on record?
The Potency was active: 3.16 µM.

Which Potency does the source give for `COc1ccc(C2C(C(=O)Nc3ccccc3)=C(C)Nc3nc(-c4ccccc4)nn32)cc1OC` (stereo not given) here?
Its Potency is inconclusive: 7.94 µM [cytotoxic, partial curve].

For `CCOC(=O)c1c(N)sc(C(=O)Nc2ccc3c(c2)OCO3)c1C`, which Potency is on record?
The Potency was active: 2.51 µM.

Which “activity change, negative = cell killing” value does the source give for `CC(C)c1ccc(NC(=O)C2CCCN(S(=O)(=O)c3ccc(Br)s3)C2)cc1` (stereo not given) here?
The value was inactive: -10.3%.

Which Potency does the source give for `CCc1ccc(NS(=O)(=O)c2ccc3[nH]cc(C(=O)NC4CCCC4)c(=O)c3c2)cc1` here?
The Potency was inconclusive: 25.1 µM [cytotoxic, single point].

For `O=C(NCc1ccc(Cl)cc1)c1ccc2c(c1)NC(=O)C(CS(=O)(=O)Cc1ccc(F)cc1Cl)N2` (stereo not given), which Potency is on record?
Its Potency is inconclusive: 25.1 µM [cytotoxic, single point].

Which “activity change, negative = cell killing” value does the source give for `Clc1ccc(-c2csc(-c3nc(-c4ccc(Br)s4)cs3)n2)cc1` here?
Its value is inactive: 6.82%.

For `COc1ccc(NC(=O)Nc2cccs2)cc1OC`, which Potency is on record?
The Potency was inconclusive: 15.8 µM [cytotoxic, partial curve].

With `CCOC(=O)c1ccc(NC2(c3ccccc3)C(=O)c3ccccc3C2=O)cc1` as the compound, how does the Potency read?
Its Potency is inconclusive: 1.26 µM [cytotoxic, single point].

Which “activity change, negative = cell killing” value does the source give for `CCOC(=O)c1ccc(NC(=O)c2sc3ccccc3c2Cl)cc1` here?
Its value is inactive: -23.5%.

With `Cc1ccc(S(=O)(=O)c2nc(-c3cccs3)oc2SCC(=O)Nc2cc(C)cc(C)c2)cc1` as the compound, how does the activity change, negative = cell killing read?
The activity change, negative = cell killing was inconclusive: -75.1% [cytotoxic].

Which “activity change, negative = cell killing” value does the source give for `COc1ccccc1-c1nc(C#N)c(N2CCN(Cc3ccccc3)CC2)o1` here?
Its value is inactive: 29.8%.

With `Cc1cccc(Cn2c(=O)n(CCCC(=O)NCc3ccccc3Cl)c(=O)c3ccccc32)c1` as the compound, how does the Potency read?
The Potency was inconclusive: 3.98 µM [cytotoxic, full curve, poor fit].

Which Potency does the source give for `CCOc1ccc(-n2ccnc2SCC(=O)Nc2cccc3ccccc23)cc1` here?
The Potency was inconclusive: 31.6 µM [cytotoxic, single point].

Which Potency does the source give for `CCOC(=O)N1CCN(C(=O)CSc2nnc(-c3ccc(C(C)(C)C)cc3)o2)CC1` here?
The Potency was inconclusive: 7.94 µM [cytotoxic, partial curve].

For `CC(=O)Nc1ccc(-c2nc(C)c(C(C)=O)n2O)cc1`, which Potency is on record?
The Potency was inconclusive: 12.6 µM [cytotoxic, single point].
